Laboratory results taken from US7495088B1, “Modified nucleotide compounds” (Enzo Life Sciences, Inc., priority 1989, dated 2009).

Key:
[1] = molecular target: Bovine pancrease DNase I (Bos taurus, UniProt P00639)
[2] = RPMI 1640 only (serum-free), about 0.2 uM, 37° C., up to 24 hours

TGACTTAGCTGCAT (chemistry not given here) [Oligomer 14-P-3]
half-life for digestion by DNase I [1]: ~10 min

TGACTTAGCTGCAT [14-Me^5a-3] (chemistry not given here)
Tissue Culture Stabilities, RPMI [2]: Stable

TGACTTAGCTGCAT [14-Me^5b-3] (chemistry not given here)
Tissue Culture Stabilities, RPMI [2]: Stable

TGACTTAGCTGCAT [14-Me^6a-3] (chemistry not given here)
Tissue Culture Stabilities, RPMI [2]: Stable

TGACTTAGCTGCAT [14-Me^6b-3] (chemistry not given here)
Tissue Culture Stabilities, RPMI [2]: Stable
